The series relates to ATP. The series is described as follows: switch fluorescence ratio, 500 uM ATP over buffer (Cy3 cluster intensity, sum of 5 cycles each) (fold (ratio)); higher = stronger signal-on switching upon ATP binding; sequences stand for … in TCGTCGGCAGCGTCAGATGTGTATAAGAGACAGTTTTTTTTTTTTTTTTTTTTTTTTT…TC. The following applies: aptamer strand: ATP DNA aptamer (quencher-CACCTGGGGGAGTATTGCGGAGGAAGG + anchor), 100 nM annealed; ATP concentration: 500 uM; one replicate. Summed up:
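Imaging in selection buffer was followed by imaging after 15 min with 500 uM ATP at 22 °C, for Cy3-labelled switching-strand clusters annealed to 100 nM quencher-labelled ATP aptamer on a modified Illumina MiSeq flow-cell. Five of these buffer/ATP cycles ran, separated by NaOH stripping and re-annealing. The fluorescence ratio per cluster is summed target-cycle over summed buffer-cycle Cy3 intensity, averaged per switch-domain sequence; clusters outside 100-1000 RFU were removed.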

Values marked as one replicate rest on one cluster of the flow cell; about a third of the high ones do not repeat.
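Also: ATP exposure 15 min at 22 °C before imaging.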

On to GAAGTTCCCG, for which the switch fluorescence ratio came out at 0.982.

For TAGGCAGGTC, the switch fluorescence ratio stood at 0.977.

As for CGATTTGGGA, the switch fluorescence ratio was found to be 1.03.

Regarding CTTCTTCATA, the switch fluorescence ratio worked out at 0.984.

As to TAGGGCTTCC, the switch fluorescence ratio is 1.88.

Regarding TTGACTAGTG, the switch fluorescence ratio amounted to 0.989.

Consider GCGGGTTAT, for which the switch fluorescence ratio turned out to be 0.994.

Take CAGTCACTG: the switch fluorescence ratio was determined as 0.98.

As for GGTGGATAAA, the switch fluorescence ratio was found to be 0.915.

Take AAGATAAATG: the switch fluorescence ratio was 0.995.

Consider ACTTAATCG, for which the switch fluorescence ratio worked out at 1.04.

As for TAGGCACAAT, the switch fluorescence ratio was 1.02.

Take GAGCAGGATA: the switch fluorescence ratio amounted to 1.04.

Take GGTCCATAAT: the switch fluorescence ratio was determined as 1.03.

In the case of TATTTACCAG, the switch fluorescence ratio amounted to 1.01.

As for CTGAATAGCG, the switch fluorescence ratio is 1.01.

As to CTAGGGGAGG, the switch fluorescence ratio was 0.972.

Regarding ATTAAATTAT, the switch fluorescence ratio worked out at 0.979.

Regarding TTGATCCTTA, the switch fluorescence ratio was 1.

For GCCAGCCGGG, the switch fluorescence ratio was found to be 1.15.

GTGTGACCCC: the switch fluorescence ratio worked out at 0.962.

Regarding TCGCGTTTAC, the switch fluorescence ratio amounted to 1.59.

As to AATGAGGATG, the switch fluorescence ratio was 1.02.

As for CAAGGGGCGA, the switch fluorescence ratio was determined as 1.03.

With GGTGAGTGCT, the switch fluorescence ratio came out at 1.

Take AATATGTAGT: the switch fluorescence ratio was 1.03.

For the sequence CCGTACCTTA, the switch fluorescence ratio came to 1.19.

ATGTAGGATC: the switch fluorescence ratio was found to be 0.995.

On to GCATGTGCCG, for which the switch fluorescence ratio was found to be 0.874.

For TCTCCCTTTA, the switch fluorescence ratio is 1.08.

As for ATATGTACTC, the switch fluorescence ratio was found to be 1.1.

Regarding ATATTACATG, the switch fluorescence ratio was 1.02.

As for GTGCGGACCG, the switch fluorescence ratio was 1.02.

As to TTTACTTTAG, the switch fluorescence ratio is 1.01.

For the sequence GATAGTACTT, the switch fluorescence ratio stood at 0.99.

On to CATAATAGGG, for which the switch fluorescence ratio amounted to 1.01.

As for CGTTAATTTG, the switch fluorescence ratio was determined as 0.931.

Regarding GGTCAGTTTT, the switch fluorescence ratio stood at 0.99.

Take GCATTGTTGT: the switch fluorescence ratio was found to be 0.957.

GACCATGAAG: the switch fluorescence ratio amounted to 0.981.

Turning to TCATATTGAA, the switch fluorescence ratio was 0.987.

For the sequence CAGGGCAGGC, the switch fluorescence ratio stood at 0.934.

Consider GAGCCTCCTG, for which the switch fluorescence ratio was 1.02.

Regarding GACAATG, the switch fluorescence ratio came to 1.05.

As for GCTACCCAAA, the switch fluorescence ratio turned out to be 1.02.

Turning to TTTTGGAGTG, the switch fluorescence ratio was found to be 0.983.

With GGTAAAGGG, the switch fluorescence ratio was 0.96.

GCTATTCGGG: the switch fluorescence ratio is 1.01.

Regarding GATAATTGTT, the switch fluorescence ratio was 0.964.

In the case of AAAGTTTAAA, the switch fluorescence ratio came out at 1.01.

For the sequence CAGTGATTCA, the switch fluorescence ratio came to 0.998.

Turning to TTAGGAACG, the switch fluorescence ratio is 1.04.

TTCTGTAACT: the switch fluorescence ratio turned out to be 1.04.

As for TCGGTTACGG, the switch fluorescence ratio is 1.03.

For the sequence TAGAAGCTAG, the switch fluorescence ratio was found to be 1.

GTTACGGATA: the switch fluorescence ratio worked out at 1.02.

TTATAGTGCG: the switch fluorescence ratio was found to be 1.12.

With GCACAGATCC, the switch fluorescence ratio is 1.

Turning to TTTGATTCCG, the switch fluorescence ratio was determined as 0.965.

Turning to ACTTCTAAGG, the switch fluorescence ratio was determined as 1.05.

Take TCACACGATA: the switch fluorescence ratio came out at 1.28.

Turning to GTTTACTGGT, the switch fluorescence ratio is 0.989.

As for TGTTGTGAAA, the switch fluorescence ratio was found to be 0.953.

With GAGTGGGGTG, the switch fluorescence ratio was found to be 0.973.

Take ATTCTAATTT: the switch fluorescence ratio was determined as 0.971.

For the sequence TGGCTAACTG, the switch fluorescence ratio is 0.973.

Turning to ACCTACAGTG, the switch fluorescence ratio was 1.26.

For CATTGCAAAG, the switch fluorescence ratio came to 1.05.

Consider GAAGTGAAAG, for which the switch fluorescence ratio was found to be 0.985.

Turning to ATAATAAAGT, the switch fluorescence ratio came out at 0.961.

For the sequence TATTTTGACT, the switch fluorescence ratio is 0.934.

Consider TCATGAATGA, for which the switch fluorescence ratio is 0.973.

Turning to CGTTGAAAAA, the switch fluorescence ratio amounted to 0.999.

For the sequence TAGAAGGCAC, the switch fluorescence ratio amounted to 1.03.

Consider TACTCTCAGA, for which the switch fluorescence ratio worked out at 1.02.

On to TCATATTAGT, for which the switch fluorescence ratio amounted to 0.984.

For TCAGTTTAGT, the switch fluorescence ratio is 1.02.

Consider AATATTAAGT, for which the switch fluorescence ratio was determined as 0.981.

For CATATTCCGG, the switch fluorescence ratio was 1.01.

As for TGTATTTATG, the switch fluorescence ratio worked out at 0.996.

On to TACTGGGGAT, for which the switch fluorescence ratio was 1.

With TAGGCTGTTC, the switch fluorescence ratio stood at 0.944.

Turning to TGTTAGAAAG, the switch fluorescence ratio amounted to 0.986.

Take GGTCCCAAAG: the switch fluorescence ratio was 0.986.

For CCCAACACCT, the switch fluorescence ratio is 1.27.

On to TCAGCATAAC, for which the switch fluorescence ratio came to 4.64.

As to TATGGGCCGA, the switch fluorescence ratio worked out at 1.04.

For the sequence GCCGTTTCGA, the switch fluorescence ratio amounted to 0.986.

With CGTACGGTGA, the switch fluorescence ratio came to 0.993.

Consider GACCGTGAAG, for which the switch fluorescence ratio was found to be 0.956.

For the sequence CTTTTTCGTA, the switch fluorescence ratio came out at 0.976.

As to ACCACACACC, the switch fluorescence ratio amounted to 1.5.

Turning to GCCTCAAAAT, the switch fluorescence ratio was found to be 1.06.

Take TAGCCGTTTC: the switch fluorescence ratio turned out to be 1.01.

CGGTCCTTCT: the switch fluorescence ratio amounted to 1.05.

Turning to GAAGCTCGTT, the switch fluorescence ratio came out at 1.01.

For the sequence AGACGGCCCA, the switch fluorescence ratio was determined as 1.04.

As to TTATAGTGTC, the switch fluorescence ratio was found to be 0.955.

On to AGGAAACGGA, for which the switch fluorescence ratio was 1.06.

Regarding GAAAAGGTTG, the switch fluorescence ratio is 0.983.

TGATTCATCG: the switch fluorescence ratio was 1.01.

For the sequence GAACAACGAT, the switch fluorescence ratio was 0.986.

With CGCTTCGACC, the switch fluorescence ratio worked out at 2.14.

On to TCCAGCGCGA, for which the switch fluorescence ratio is 4.36.

In the case of TTGACTGCTA, the switch fluorescence ratio was 1.12.

For AACGATGCGT, the switch fluorescence ratio is 1.05.

Turning to TCCGTGCATC, the switch fluorescence ratio stood at 2.34.

As for CTCTCTGT, the switch fluorescence ratio is 1.02.

Regarding AGCACGCCCA, the switch fluorescence ratio came out at 1.24.

AATCAGACGC: the switch fluorescence ratio was found to be 1.05.

CTCCAATTGA: the switch fluorescence ratio is 1.09.

Take GGATACAGGA: the switch fluorescence ratio amounted to 1.04.

For the sequence GGTCAGCAAA, the switch fluorescence ratio came out at 0.977.

As for AAGAGTGGGC, the switch fluorescence ratio stood at 1.03.

For TGGTTGATTT, the switch fluorescence ratio worked out at 0.972.

GGCGATTTGC: the switch fluorescence ratio worked out at 1.01.

Take TGGGTAAGA: the switch fluorescence ratio stood at 0.95.

On to TTAAGTTGCT, for which the switch fluorescence ratio was found to be 0.997.

Consider ATGAATTGAC, for which the switch fluorescence ratio is 1.06.

Turning to ATCCTGTCAC, the switch fluorescence ratio turned out to be 1.08.

The values above are taken from the supplement of paper PMC10126150.
